# Source: PubChem BioAssay AID686978 (National Center for Advancing Translational Sciences (NCATS), 2013)
# Screen size: about 420,000 compounds; about 64,000 (15%) were called active. The shares of active, inactive and inconclusive entries below differ from those in the screen. Calls follow the shape of the dose curve; as a rule, active = well fitted inhibition curve with a large enough effect; inconclusive = small, poorly fitted or top-dose-only effect; inactive = flat fitted curve, though single readings scatter. Potencies of inconclusive entries are left out as doubtful fits.
# Test: qHTS for Inhibitors of human tyrosyl-DNA phosphodiesterase 1 (TDP1): qHTS in cells in absence of CPT; also: nearly all actives have a fitted effect of over 55% in size
# Settings: DT40 Tdp1-/- hTDP1 cells, no CPT, ATP luminescence, 48 h; series mostly up to 46.2 µM
# In short: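 Chicken DT40 Tdp1-/- cells stably complemented with human TDP1 were seeded at 400 cells/well with DMSO in place of 20 nM camptothecin. After compound pinning, cells grew at least 48 hr at 37 °C; viability read by CellTiter-Glo luminescence.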
# Potency is read from the fitted curve at half-maximal effect; tags tell the direction and shape of the fitted curve.
row,SMILES,Potency
1,CC[C@@]1(C(=O)OC)N[C@H](CN(C)S(=O)(=O)c2ccc(C(C)(C)C)cc2)[C@@H]2C(=O)N(Cc3ccccc3)C(=O)[C@@H]21,"inconclusive [inhibitor, full curve, poor fit]"
2,Cc1cc(C(=O)CN2CCCC(C)C2)c(C)n1-c1ccc(F)cc1 (centres undefined),"inconclusive [inhibitor, partial curve]"
3,CC(C)c1ccccc1NC(=S)NC1CCCCC1,"inconclusive [inhibitor, single point]"
4,Cc1cc2oc(C(=O)N3CCN(Cc4ccccc4)CC3)c(C)c2cc1C,"inconclusive [inhibitor, partial curve, poor fit]"
5,CCN(CC)CC(=O)Nc1c2c(nc3ccccc13)N(C)CC2,inactive
6,COc1cc(NC(=O)c2c(F)c(F)c(OC)c(F)c2F)ccc1NC(=O)c1cccs1,active: 18.4 µM
7,COc1cccc(CNC(=O)C2CC(=O)N(C3CCCCCCC3)C2)c1 (centres undefined),inactive
8,CCNS(=O)(=O)c1cc(-c2nnc(Nc3cccc(C(F)(F)F)c3)c3ccccc23)ccc1C,active: 5.8 µM
9,O=C(CCC(=O)OCC(=O)c1ccc(-c2ccccc2)cc1)Nc1cccc2cccnc12,inactive
10,O=c1c2ccccc2c2ccccc2c(=O)n1Cc1ccc2c(c1)OCO2,"inconclusive [inhibitor, single point]"
11,OCC1CCCN(Cc2cn(Cc3ccccc3)nc2-c2cc3ccccc3o2)C1 (centres undefined),"inconclusive [inhibitor, partial curve, poor fit]"
12,CC(C)(C)c1ccc(NC(=S)NCCc2ccccn2)cc1,"inconclusive [inhibitor, single point]"
13,CC1=C(C(=O)N2CCCCCC2)CC(CC(=O)NCCN2CCOCC2)C(=O)N1Cc1ccc(C(C)(C)C)cc1 (centres undefined),"inconclusive [inhibitor, partial curve]"
14,Cc1nc([N+](=O)[O-])c(Br)n1CC(=O)c1ccc(Cl)cc1,active: 7.31 µM
15,COc1ccccc1CN1CCN(S(=O)(=O)c2ccccc2)CC1,"inconclusive [inhibitor, partial curve, poor fit]"
16,O=C(CCN1C(=O)/C(=C/c2ccc(F)cc2)SC1=S)NNC(=O)c1cccnc1,active: 9.2 µM
17,CCOC(=O)CSc1nc(N)c2c3c(sc2n1)CCCC3,inactive
18,COc1ccc(N(CC(=O)NCc2ccc(Cl)cc2)S(=O)(=O)c2c(C)nn(C)c2C)cc1,inactive
19,COc1ccc(N2CCN(C(=O)COC(=O)c3ccc(Cl)nc3)CC2)cc1,"inconclusive [inhibitor, partial curve]"
